Screen size: about 94,000 compounds; about 4,000 (4.3%) were called active. The shares of active, inactive and inconclusive entries below differ from those in the screen. Calls follow the shape of the dose curve; as a rule, active = well fitted inhibition curve with a large enough effect; inconclusive = small, poorly fitted or top-dose-only effect; inactive = no such curve, though single readings can be large or run the other way. Potencies beside an inconclusive call are fits to weak or partial responses and may not hold up.
Experiment: Cytotoxic Profiling in NIH 3T3 Cell Line of Diverse Libraries Using Quantitative High-Throughput Screening; also: nearly all actives have a fitted effect of over 55% in size
Settings: NIH 3T3 viability, CellTiter-Glo ATP luminescence, 48-72 h; activity change, negative = cytotoxicity: at 96.7 µM (top of the series) unless noted; series mostly up to 96.7 µM
Method in brief: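 Cytotoxicity is measured as loss of cellular ATP: NIH 3T3 cells (400/well) are exposed to compound for 48 or 72 hr at 37 °C, then CellTiter-Glo luminescence is imaged after 10 min at room temperature.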
% is scaled to controls: 0 for no effect and ±100 for the full control effect; potency is read from the fitted curve at half-maximal effect; tags tell the direction and shape of the fitted curve.

| SMILES | activity change, negative = cytotoxicity | Potency | outcome |
| --- | --- | --- | --- |
| COc1cc(OC)cc(OCc2nc3c(n2Cc2ccccc2)C(=O)N(Cc2ccccc2C#N)CCN3)c1 | inactive: -41.5% |  |  |
| COc1ccccc1-c1cnc(NC(=O)C2CCOCC2)c2c1CCO2 |  | inconclusive: 63.1 µM [inhibitor, partial curve, poor fit] |  |
| Cc1ccc(-c2noc([C@@H]3CCCN3C(=O)CCCc3ccccc3)n2)cc1 |  | inconclusive: 50.1 µM [inhibitor, partial curve, poor fit] |  |
| O=C(O)C1(c2ccccc2)CCN(S(=O)(=O)c2ccccc2)CC1 |  | active: 79.4 µM |  |
| Cc1cccc(NC(=O)N2CCC(CCOc3ccc(F)cc3)C2)c1 (configuration not stated) |  | inconclusive: 56.2 µM [inhibitor, partial curve, poor fit] |  |
| COc1ccccc1NC(=O)N1CCc2cc(OC)c(OC)cc2C1CNC(=O)c1ccccc1 (configuration not stated) |  | inconclusive: 70.8 µM [inhibitor, single point] |  |
| C[C@H](C(=O)N1Cc2ccccc2CC2(CCN(Cc3ccncc3)C2)C1)c1ccccc1 (some centres not stated) |  | inconclusive: 79.4 µM [inhibitor, partial curve, poor fit] |  |
| COCCNC(=O)C[C@@H]1C[C@@H](C(C)C)[C@H](CNS(C)(=O)=O)C=C1C | inactive: 4.44% [at 138 µM] |  |  |
| CN(Cc1ccc(-c2ccccc2)cc1)C(=O)C1CC1 |  | inconclusive: 44.7 µM [inhibitor, partial curve, poor fit] |  |
| CN1CCCN(C(=O)C2CCC2)c2ccccc21 | inactive: -20.3% |  |  |
| CN1CCN(c2cc(=O)c3ccnc(NCc4ccccc4)c3o2)CC1 |  | inconclusive: 17.8 µM [inhibitor, full curve, poor fit] |  |
| CN(C)c1cccc(C(=O)NC2CCN(c3cc(-c4ccc(Cl)cc4)[nH]n3)C2)c1 (configuration not stated) |  | inconclusive: 44.7 µM [inhibitor, partial curve, poor fit] |  |
| CCc1cc(CN2CC[C@@H](c3ccc4c(c3)OCO4)[C@H](O)C2)[nH]n1 |  |  | inactive |
| Cc1nn2c(c1-c1ccccc1N1CCCC1)N(C(=O)c1ccn(C)n1)CCC2 |  | inconclusive: 70.8 µM [inhibitor, partial curve, poor fit] |  |
| O=C(Cn1nc2c(cc1=O)CCCC2)NCCc1c[nH]c2ccc(F)cc12 | inactive: -17.9% |  |  |
| CCN(CC)Cc1nc(C2(O)CCN(Cc3ccc(F)cc3)CC2)cs1 |  | inconclusive: 100 µM [inhibitor, partial curve, poor fit] |  |
| CCCCCCNC(=O)Cc1csc2nc(C)c(-c3cc(C)n(-c4ccccc4F)n3)c(=O)n12 |  | inconclusive: 35.5 µM [inhibitor, partial curve, poor fit] |  |
| CC(C)NC(=O)N1CCCC1c1nnc2n1CCNC2 (configuration not stated) | inactive: -5.25% |  |  |
| O=C(Nc1cccc(Cl)c1)C1CN(c2cccc(Cl)c2)C(=O)N1 (configuration not stated) |  | inconclusive: 44.7 µM [inhibitor, partial curve, poor fit] |  |
| O=C(Nc1cc(F)cc(F)c1)C1CCN(C(=O)c2ncn3c2COC(c2ccc(F)cc2)C3)CC1 (configuration not stated) |  | inconclusive: 31.6 µM [inhibitor, partial curve] |  |
| O=C(NC1CCN(c2ccc3nnc(C4CC4)n3n2)C1)c1cccnc1 (configuration not stated) | inactive: -26.8% |  |  |

| SMILES | activity change, negative = cytotoxicity | Potency | outcome |
| --- | --- | --- | --- |
| COc1ccc(NC(=O)Cn2c(-c3ccc(F)cc3)nc(C)cc2=O)cc1OC |  | inconclusive: 50.1 µM [inhibitor, partial curve, poor fit] |  |
| O=C(NCc1cccc(Cl)c1)c1nc2cccnc2n(C2CCCCC2)c1=O |  | inconclusive: 5.62 µM [inhibitor, partial curve, poor fit] |  |
| O=c1n(CC2CC2)nc2n1CCN(C1CCCC1)CC2 | inactive: 2.24% |  |  |
| COCc1noc([C@@H]2CNC[C@H]2C(N)=O)n1 | inactive: 2.12% |  |  |
| CN(C)CCNC(=O)c1nc2nc(-c3ccccc3)c(Cl)cc2n1C |  | inconclusive: 112 µM [inhibitor, single point] |  |
| COc1ccccc1-c1nnc2ccc(C(=O)NCc3cccs3)cn12 | inactive: -21.7% |  |  |
| COc1ccc(C(=O)N2CCn3c(nn(-c4cccc(Cl)c4)c3=O)C2)cc1 |  | inconclusive: 39.8 µM [inhibitor, partial curve, poor fit] |  |
| CCn1ncc(N2CCCC(CC(=O)NCCc3cccs3)C2)cc1=O (configuration not stated) | inactive: -27.1% |  |  |
| Cc1nn(-c2ccccc2)c2c1C(C1CC1)N(CC1CN(C(=O)C(C)(C)C)C1)C2=O (configuration not stated) |  | inconclusive: 39.8 µM [inhibitor, partial curve] |  |
| CC(C)(C)c1nc(C(=O)N2CCCC2)n2ccccc12 |  | inconclusive: 100 µM [inhibitor, partial curve] |  |
| CN1Cc2ccc(NCc3ccccc3)nc2C(C)(C(=O)NCCCn2ccnc2)C1 (configuration not stated) |  | inconclusive: 56.2 µM [inhibitor, partial curve, poor fit] |  |
| O=C(c1cc(Cl)ccc1F)N1CCC(Cc2nc(-c3ccc(F)cc3)no2)CC1 |  | inconclusive: 39.8 µM [inhibitor, partial curve, poor fit] |  |
| COc1ccc(CC(=O)NC2CCCN(c3ccnc4ccnn34)C2)cc1 (configuration not stated) | inactive: -12.2% |  |  |
| CC1(C)C(=O)N(CC2CCOCC2)[C@H]2CN(CCCc3ccccc3)C[C@@H]2[S+]1(=O)[O-] |  | inconclusive: 100 µM [inhibitor, single point] |  |
| COCCn1cnc2ccc(OCC3CC3)nc2c1=O |  | inconclusive: 126 µM [inhibitor, single point] |  |
| COc1ccc(CN2Cc3cc(NC(=O)c4ccc(F)cc4F)ccc3OC(C)C2=O)c(OC)c1 (configuration not stated) |  | inconclusive: 50.1 µM [inhibitor, partial curve, poor fit] |  |
| COc1ccc(NC(=O)N2CCc3nc(-c4cccc(F)c4)[nH]c3C2)cc1 |  | inconclusive: 25.1 µM [inhibitor, full curve] |  |
| Cc1csc(Nc2ccc3ncn(C)c(=O)c3n2)n1 |  | inconclusive: 25.1 µM [inhibitor, full curve, poor fit] |  |
| Cc1noc2c(-c3cccc(CO)c3)cc(-c3ccc(F)cc3)nc12 |  | inconclusive: 56.2 µM [inhibitor, partial curve, poor fit] |  |
| O=C(Cc1ccc(F)cc1)NC1CCN(c2ccc3nnc(-c4ccccc4)n3n2)CC1 |  | inconclusive: 56.2 µM [inhibitor, partial curve, poor fit] |  |
| COc1cc(CNCc2ccc(C)c(F)c2F)ccc1OCC(O)CN1CCC(O)CC1 (configuration not stated) |  | inconclusive: 50.1 µM [inhibitor, partial curve, poor fit] |  |

| SMILES | activity change, negative = cytotoxicity | Potency | outcome |
| --- | --- | --- | --- |
| COc1ccc(-c2cc(N3CCC(NC(=O)c4cccc(C)c4)CC3)n[nH]2)cc1 |  | inconclusive: 39.8 µM [inhibitor, partial curve, poor fit] |  |
| CC(=O)N1CCCN(Cc2nc3c(n2Cc2ccccc2)C(=O)N(CC2CC2)CCN3)CC1 |  | inconclusive: 50.1 µM [inhibitor, partial curve, poor fit] |  |
| COc1ccc(Nc2ccnc(N3CCC(NC(=O)c4ccc(Cl)cc4)CC3)n2)cc1 |  | inconclusive: 50.1 µM [inhibitor, partial curve, poor fit] |  |
| CCN1c2cc(C(=O)Nc3ccc(OC)c(OC)c3)ccc2C(=O)N2CCCCCC21 (configuration not stated) |  | inconclusive: 31.6 µM [inhibitor, partial curve, poor fit] |  |
| COCCn1ccc2c(C3=CCOCC3)nc(-c3cccc(C(N)=O)c3)cc21 |  | active: 25.1 µM |  |
| CCOc1cccc2c1OC[C@@H]1CN(CCC#N)C(=O)CCN(C(=O)c3ccc(C)cc3)[C@H]21 |  | inconclusive: 70.8 µM [inhibitor, partial curve, poor fit] |  |
| CCc1nc2c(c(-c3ccc(O)cc3)n1)CCN(Cc1ccccc1OC)CC2 |  | inconclusive: 50.1 µM [inhibitor, partial curve, poor fit] |  |
| CCN(C)C(=O)CCc1c(C)nn(-c2ccccc2)c1Oc1ccccc1F |  | inconclusive: 44.7 µM [inhibitor, partial curve, poor fit] |  |
| CC(C)(C)c1nnc([C@H]2CCN(Cc3ccco3)C2)o1 | inactive: -13.3% [at 230 µM] |  |  |
| CCc1cccc(NC(=O)Cn2c(Nc3cc(C)cc(C)c3)nc(C)cc2=O)c1 | inactive: -13.7% |  |  |
| CO[C@H]1[C@H](NC(=O)c2cc3ccccc3[nH]2)c2ccccc2C12CCNCC2 |  | inconclusive: 50.1 µM [inhibitor, partial curve, poor fit] |  |
| O=C(c1n[nH]c(=O)c2ccccc12)N1CCC[C@H](n2c(=O)n(CC3CC3)c3cccnc32)C1 |  | inconclusive: 50.1 µM [inhibitor, partial curve, poor fit] |  |
| O=C(Cc1ccccc1)N1CCC2(CC1)CC(N(Cc1ccccc1)C1CC1)CCO2 (configuration not stated) |  | inconclusive: 50.1 µM [inhibitor, partial curve, poor fit] |  |
| CCCNC(=O)N1CCC(c2noc(-c3ccccc3)n2)C1 (configuration not stated) |  | inconclusive: 44.7 µM [inhibitor, partial curve, poor fit] |  |
| O=C(NCc1ccc2c(c1)OCO2)C1CC(c2ccccc2)CN(C(=O)NCc2ccccc2)C1 (configuration not stated) |  | inconclusive: 50.1 µM [inhibitor, single point] |  |
| O=C1NCc2ccccc2CC12CCN(Cc1ccc(Br)s1)CC2 |  | inconclusive: 70.8 µM [inhibitor, single point] |  |
| Cc1ccc(NC(=O)Cn2c(N3CCCCC3)nc(C)c(C)c2=O)cc1Cl |  | inconclusive: 44.7 µM [inhibitor, partial curve, poor fit] |  |
| CNCC(=O)N1C[C@@H](C(=O)O)[C@H](c2ccccc2)C1 |  |  | inactive |
| COc1ccc(-c2cnc3n[nH]c(-c4ccc(F)cc4C)c3n2)cc1 |  | active: 31.6 µM |  |
| COc1cccc(CNC(=O)[C@@H]2C[C@@H](O)CN2C2CCN(C(=O)c3nccn3C)CC2)c1 | inactive: -10.8% |  |  |

Reference: PubChem BioAssay AID1345082 (National Center for Advancing Translational Sciences (NCATS), 2018)
